Data on 28 compounds can be found in publication PMC11995724, “Antibiotic target discovery by integrated phenotypic and activity-based profiling of electrophilic fragments” (Cell chemical biology, 2025).

Among all 3,200 compounds or so, about 75 (2%) showed an effect of 50% or more. Some of the results follow.

In this assay the test system is T1, S. aureus MSSA476.
T1 construct: MSSA476
Also noted: species or system S. aureus MSSA476 (TSB) or V. cholerae SAD30 (LB); 384-well bacterial growth screen at 25 uM, OD600 relative to DMSO control. As to conditions: relative growth, OD600, TSB; 25 µM; inhibitor.
Turning to `Cc1ccc(NC(=O)C(C#N)=Cc2ccc3c(c2)OCCO3)c(C)c1` [9-H03, 2-cyano-3-(2,3-dihydro-1,4-benzodioxin-6-yl)-N-(2,4-dimethylphenyl)prop-2-enamide], the “% of control remaining” value was determined as 132.434%.

For the compound `CC(Cl)C(=O)N[C@H]1C[C@@H]1c1cnn(-c2ccccc2)c1` (mixture of isomers) [7-M08, rac-2-chloro-N-[(1R,2S)-2-(1-phenyl-1H-pyrazol-4-yl)cyclopropyl]propanamide], the “% of control remaining” value was 77.551%.

Regarding `CC(Cl)C(=O)NCCc1nnnn1-c1ccccc1` (stereo not shown) [7-G17, 2-chloro-N-[2-(1-phenyl-1H-1,2,3,4-tetrazol-5-yl)ethyl]propanamide], the “% of control remaining” value stood at 91.6797%.

Regarding `Cc1ccccc1N1C(=O)C=CC1=O` [10-J13, 1-(2-methylphenyl)-2,5-dihydro-1H-pyrrole-2,5-dione], the “% of control remaining” value is given as 117.5%.

For the compound `C=CC(=O)N1CCCC(n2cncn2)C1` (stereo not shown) [2-C03, 1-[3-(1H-1,2,4-triazol-1-yl)piperidin-1-yl]prop-2-en-1-one], the “% of control remaining” value came out at 116.623%.

Regarding `Cc1noc(C23CC(CN2C(=O)C(C)Cl)C3)n1` (stereo not shown) [7-E10, 2-chloro-1-[1-(3-methyl-1,2,4-oxadiazol-5-yl)-2-azabicyclo[2.1.1]hexan-2-yl]propan-1-one], the “% of control remaining” value came to 102.983%.

In the case of `CC(C)c1ccc(-c2cc(NC(=O)CCl)n(-c3ccccc3)n2)cc1` [4-C16, 2-chloro-N-{1-phenyl-3-[4-(propan-2-yl)phenyl]-1H-pyrazol-5-yl}acetamide], the “% of control remaining” value amounted to 68.223%.

Consider `C=CC(=O)NCc1cccc(NS(C)(=O)=O)c1` [3-K15, N-[(3-methanesulfonamidophenyl)methyl]prop-2-enamide], for which the “% of control remaining” value turned out to be 102.046%.

`N#CC(=Cc1csnn1)C(=O)Nc1ccc(Oc2ccccc2)cc1` [8-M12, 2-cyano-N-(4-phenoxyphenyl)-3-(1,2,3-thiadiazol-4-yl)prop-2-enamide]: the “% of control remaining” value worked out at 94.6058%.

As to `CC1=C(C#N)C(=O)N(C2CCS(=O)(=O)C2)C(=O)C1=Cc1ccco1` (stereo not shown) [9-O13, 1-(1,1-dioxo-1lambda6-thiolan-3-yl)-5-[(furan-2-yl)methylidene]-4-methyl-2,6-dioxo-1,2,5,6-tetrahydropyridine-3-carbonitrile], the “% of control remaining” value is on record as 125.543%.

`C=CC(=O)N1CCC([C@@H](C)O)CC1` [3-E12, 1-{4-[(1R)-1-hydroxyethyl]piperidin-1-yl}prop-2-en-1-one]: the “% of control remaining” value was 83.5873%.

Take `CCn1c2ccccc2c2cc(NC(=O)C(C)Cl)ccc21` (stereo not shown) [4-E12, 2-chloro-N-(9-ethyl-9H-carbazol-3-yl)propanamide]: the “% of control remaining” value worked out at 114.721%.

Take `C=CC(=O)NC(Cc1ccccc1)c1ccccn1` (stereo not shown) [2-K14, N-[2-phenyl-1-(pyridin-2-yl)ethyl]prop-2-enamide]: the “% of control remaining” value is recorded as 109.312%.

Take `C=CC(=O)N1CCC(C(=O)N[C@H]2CC[C@@H](CC#N)C2)CC1` (racemic) [2-G21, rac-N-[(1R,3S)-3-(cyanomethyl)cyclopentyl]-1-(prop-2-enoyl)piperidine-4-carboxamide]: the “% of control remaining” value worked out at 93.6466%.

In the case of `Cc1ccc(C=C(C#N)C(=O)Nc2ccccc2Cl)s1` [9-C22, N-(2-chlorophenyl)-2-cyano-3-(5-methylthiophen-2-yl)prop-2-enamide], the “% of control remaining” value was found to be 83.2959%.

With `Cc1csc(CN(CC2CCCO2)C(=O)C(C)Cl)n1` (stereo not shown) [7-E09, 2-chloro-N-[(4-methyl-1,3-thiazol-2-yl)methyl]-N-[(oxolan-2-yl)methyl]propanamide], the “% of control remaining” value is given as 87.9121%.

Regarding `CCc1nsc(N2CCCN(C(=O)C(C)Cl)CC2)n1` (stereo not shown) [7-B15, 2-chloro-1-[4-(3-ethyl-1,2,4-thiadiazol-5-yl)-1,4-diazepan-1-yl]propan-1-one], the “% of control remaining” value was 94.8195%.

For the compound `CCOC(=O)c1c(NC(=O)CCl)sc2c1CCCC2` [6-I11, ethyl 2-(2-chloroacetamido)-4,5,6,7-tetrahydro-1-benzothiophene-3-carboxylate], the “% of control remaining” value is 96.6341%.

`C=CC(=O)Nc1ccc(-n2nc(C)[nH]c2=O)cc1` [2-E16, N-[4-(3-methyl-5-oxo-4,5-dihydro-1H-1,2,4-triazol-1-yl)phenyl]prop-2-enamide]: the “% of control remaining” value is 120.801%.

For `CC(Cl)C(=O)Nc1nc(-c2ccccc2)cs1` (stereo not shown) [6-L10, 2-chloro-N-(4-phenyl-1,3-thiazol-2-yl)propanamide], the “% of control remaining” value is 85.0244%.

Consider `C=CC(=O)Nc1cc(NC(=O)[C@@H]2CSCN2C(=O)CC)ccc1F` [2-P18, (4R)-N-[4-fluoro-3-(prop-2-enamido)phenyl]-3-propanoyl-1,3-thiazolidine-4-carboxamide], for which the “% of control remaining” value worked out at 83.899%.

On to `CC(Cl)C(=O)N1Cc2ccoc2CC(C)(C)C1` (stereo not shown) [5-P21, 2-chloro-1-{7,7-dimethyl-4H,5H,6H,7H,8H-furo[3,2-c]azepin-5-yl}propan-1-one], for which the “% of control remaining” value worked out at 106.74%.

Take `CCCCNC(=O)C(C#N)=Cc1cc(C)ccc1C` [9-C11, N-butyl-2-cyano-3-(2,5-dimethylphenyl)prop-2-enamide]: the “% of control remaining” value is recorded as 94.9813%.

Take `C=CC(=O)N1CCC(C(=O)Nc2ccn(CC(=O)N(C)C)n2)CC1` [2-H12, N-{1-[(dimethylcarbamoyl)methyl]-1H-pyrazol-3-yl}-1-(prop-2-enoyl)piperidine-4-carboxamide]: the “% of control remaining” value was 113.49%.

On to `Cc1cccc(-n2cc(C(=O)CCl)nn2)c1` [10-L07], for which the “% of control remaining” value stood at 0%.

Regarding `C=CC(=O)NCC(C)(C)C1CCCCC1` [1-E21, N-(2-cyclohexyl-2-methylpropyl)prop-2-enamide], the “% of control remaining” value came to 91.0769%.

As for `COc1cc(C=C(C#N)C(=O)Nc2ccccn2)ccc1O` [9-P08, 2-cyano-3-(4-hydroxy-3-methoxyphenyl)-N-(pyridin-2-yl)prop-2-enamide], the “% of control remaining” value is listed as 112.959%.

For the compound `N#CC(=Cc1ccccc1OC(F)F)C(=O)NC1CCCCC1` [8-H18, 2-cyano-N-cyclohexyl-3-[2-(difluoromethoxy)phenyl]prop-2-enamide], the “% of control remaining” value is on record as 92.9461%.
